# From PubChem BioAssay AID588591 (National Center for Advancing Translational Sciences (NCATS), 2011)
# The campaign covered roughly 390,000 compounds. About 4,700 (1.2%) were called active. Inconclusive means that the source gave no clear call. Such entries were picked first, then a sample of the others. Calls follow the shape of the dose curve; as a rule, active = well fitted inhibition curve with a large enough effect; inconclusive = small, poorly fitted or top-dose-only effect, or another doubt; inactive = no such curve, though single readings can be large or run the other way. Potencies beside an inconclusive call are fits to weak or partial responses and may not hold up.
# Biological target: DNA polymerase eta (Homo sapiens) (UniProt Q9Y253)
# Experiment: qHTS for Inhibitors of Polymerase Eta
# Details: recombinant Pol eta, fluorescent DNA replication assay; series mostly up to 114 µM; activity change, negative = inhibition: at the top concentration
# Procedure, shortened: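 Fluorescent replication assay: 50 nM final substrate added after a 15 min room-temperature compound preincubation with 10 nM enzyme. Signal taken at 0 min and again at 10 min.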
# % is scaled to controls: 0 for no effect and ±100 for the full control effect; potency is read from the fitted curve at half-maximal effect; tags tell the direction and shape of the fitted curve.
# Chain of UniProt Q9Y253 (Q9Y253 whole entry, looked up): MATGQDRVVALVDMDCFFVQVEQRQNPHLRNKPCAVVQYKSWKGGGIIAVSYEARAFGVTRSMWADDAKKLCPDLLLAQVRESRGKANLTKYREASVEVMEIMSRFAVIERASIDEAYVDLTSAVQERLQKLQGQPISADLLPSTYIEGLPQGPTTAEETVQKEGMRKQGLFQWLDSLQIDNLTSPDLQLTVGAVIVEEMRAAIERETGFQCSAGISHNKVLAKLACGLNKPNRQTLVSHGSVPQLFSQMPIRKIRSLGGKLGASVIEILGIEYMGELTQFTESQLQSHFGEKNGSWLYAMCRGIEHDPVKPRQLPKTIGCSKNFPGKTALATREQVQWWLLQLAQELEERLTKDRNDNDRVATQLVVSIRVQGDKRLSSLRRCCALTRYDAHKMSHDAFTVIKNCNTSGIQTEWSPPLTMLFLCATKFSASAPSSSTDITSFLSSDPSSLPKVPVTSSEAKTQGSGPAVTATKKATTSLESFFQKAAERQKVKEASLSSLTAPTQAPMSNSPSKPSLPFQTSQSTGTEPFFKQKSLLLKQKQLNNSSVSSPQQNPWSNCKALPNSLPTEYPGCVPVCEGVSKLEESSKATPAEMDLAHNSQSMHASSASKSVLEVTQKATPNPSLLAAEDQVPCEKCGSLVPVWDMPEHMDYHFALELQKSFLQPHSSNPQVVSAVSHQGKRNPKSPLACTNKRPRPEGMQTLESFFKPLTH
Structure (SMILES),"activity change, negative = inhibition",Potency
O=C1Nc2cc(C(=O)NCCN3CCCCCC3)ccc2S/C1=C/c1ccccc1F,inactive: -17.6%,
COc1ccc([C@@H]2[C@@H]3C(=O)N(C(C)(C)C)C(=O)[C@@H]3[C@]3(Cc4ccccc4)C(=O)N(c4ccccc4)C(=O)N23)cc1,,"inconclusive: 89.1 µM [inhibitor, partial curve, poor fit]"
CSc1ccc(/C=C/C(=O)NC(=O)c2ccccc2O)cc1,inactive: -23%,
COc1ccc2c(c1)c(=O)oc1cc(OCC(=O)N3CCCC(C)C3)ccc12 (configuration not stated),,"inconclusive: 22.4 µM [inhibitor, partial curve, poor fit]"
COc1ccc(-c2cc(=O)c3c(C)cc(O)cc3o2)cc1,,"inconclusive: 25.1 µM [inhibitor, single point]"
CC(=O)Nc1cccc(NC(=O)CSc2ccc(-c3ccco3)nn2)c1,,active: 17.8 µM
O=C(NNC(=O)c1ccc(NC(=O)c2ccccc2)cc1)c1ccc(F)cc1,inactive: -14.8%,
C=CCn1cccc(/C=C/C(=O)c2ccc(C(C)(C)C)cc2)c1=S,,"inconclusive: 28.2 µM [inhibitor, partial curve, poor fit]"
Cc1nnc(SCC(=O)NC(=O)NCc2ccco2)n1Cc1ccccc1,,"inconclusive: 11.2 µM [inhibitor, full curve, poor fit]"
O=C1CCSc2ccc(Cl)cc2N1Cc1cccc(Cl)c1,,"inconclusive: 70.8 µM [inhibitor, partial curve, poor fit]"
C=CCSC1=N/C(=C\c2sccc2C)C(=O)S1,inactive: -10.6%,
C#CCSc1nncn1C(=O)/C=C/c1ccccc1,inactive: 9.79%,
COc1ccc(C(=O)COC(=O)c2cc([N+](=O)[O-])ccc2N2CCOCC2)c(OC)c1,,"inconclusive: 15.8 µM [inhibitor, partial curve, poor fit]"
CCOC(=O)c1cccc(NC(=O)CCS(=O)(=O)c2ccc3c(c2)CC(=O)N3C)c1,inactive: -4.16%,
O=C(COC(=O)c1cncc(Br)c1)NCc1ccco1,,active: 10 µM
Cc1csc(NC(=O)c2cc(C)nc3ccccc23)n1,inactive: -7.75%,
COC(=O)CCC(=O)NC(=S)Nc1sc(C)c(C)c1C(N)=O,,"inconclusive: 3.98 µM [inhibitor, partial curve, poor fit]"
CC(C)C(NC(=O)/C(=C\c1ccco1)NC(=O)c1ccco1)C(=O)O (configuration not stated),,active: 20 µM
CC1CCCC(NC(=O)CNC(=S)N(Cc2ccccc2)Cc2cccs2)C1C (configuration not stated),,"inconclusive: 79.4 µM [inhibitor, partial curve, poor fit]"
C=C1C(=O)O[C@@H]2[C@H]1[C@@H](OC(=O)/C(C)=C/C)C/C(C)=C\C(=O)/C=C(\C)[C@@H]2O,,"inconclusive: 25.1 µM [inhibitor, full curve]"
COc1ccccc1C(=O)Oc1cc(N)n(S(=O)(=O)c2ccc(C)cc2)n1,,"inconclusive: 15.8 µM [inhibitor, partial curve, poor fit]"

Structure (SMILES),"activity change, negative = inhibition",Potency
O=C(CN1CCN(c2ccc(O)cc2)CC1)NC(=O)NCc1ccco1,,"inconclusive: 31.6 µM [inhibitor, partial curve, poor fit]"
CC(=O)N1CC(=O)N(c2ccccc2)C1=O,inactive: -19.4%,
CCc1cccc(NC(=O)c2ccc(Cn3c(=O)[nH]c4ccsc4c3=O)cc2)c1,,"inconclusive: 79.4 µM [inhibitor, partial curve]"
C=CCn1c(SCc2cc(=O)n3ccsc3n2)nc2ccccc2c1=O,inactive: 18.7%,
Cc1cccc(N2CCN(C(=O)CSc3ccsc3[N+](=O)[O-])CC2C)c1 (configuration not stated),,"inconclusive: 79.4 µM [inhibitor, partial curve, poor fit]"
CCn1c(SC(C)C(=O)O)nc2sc3c(c2c1=O)CCC3 (configuration not stated),,active: 3.55 µM
CCN(c1ccccc1)S(=O)(=O)c1ccc2[nH]cc(C(=O)NCCOC)c(=O)c2c1,,"inconclusive: 22.4 µM [inhibitor, partial curve, poor fit]"
COc1ccc(NS(=O)(=O)c2cc(NC(=O)COc3ccccc3)ccc2N2CCOCC2)cc1,inactive: -9.77%,
COc1cc(/C=C/c2cccc[n+]2C)ccc1OCC(=O)Nc1ccccc1,,"inconclusive: 2.82 µM [inhibitor, full curve, poor fit]"
C=CCn1c(SCC(=O)N2CCOCC2)nc2c([nH]c3ccccc32)c1=O,,"inconclusive: 89.1 µM [inhibitor, partial curve, poor fit]"
C#CCOCCOCCOCCNc1nc(N2CCN(C(=O)CCCCCCCCCCNC(=O)[C@@H](CCSC)n3cc(CCO)nn3)CC2)nc(N2CCN(C(=O)CCCCCCCCCCNC(=O)[C@H](CCCN=C(N)N)n3cc(C[C@@H](C)CC)nn3)CC2)n1,,active: 79.4 µM
Brc1ccc(N/N=C(/N=Nc2nn[nH]n2)c2ccccc2)cc1,,"inconclusive: 89.1 µM [inhibitor, partial curve, poor fit]"
NC(=O)CC(c1ccccc1)c1ccc2c(c1)OCO2 (configuration not stated),inactive: -7.62%,
COc1cc(C)nc(N(Cc2ccccc2)S(=O)(=O)c2ccccc2)n1,,"inconclusive: 89.1 µM [inhibitor, partial curve, poor fit]"
COc1ccccc1CNc1nc2c(S(=O)(=O)c3ccc(C)c(C)c3)nnn2c2ccc(Cl)cc12,,"inconclusive: 89.1 µM [inhibitor, partial curve, poor fit]"
N#Cc1c(N)nc2c3c(sc(=N)c2c1N)NC(=O)CC3c1c(F)cccc1Cl (configuration not stated),,"inconclusive: 28.2 µM [inhibitor, partial curve, poor fit]"
O=C(NC1CCSC1=O)c1cccc(C(=O)NC2CCSC2=O)c1 (configuration not stated),,"inconclusive: 22.4 µM [inhibitor, partial curve]"
CCOc1cc(/C=C(/C#N)c2ccc(F)cc2)ccc1OCc1ccc(C(=O)O)o1,,"inconclusive: 28.2 µM [inhibitor, single point]"
N#CC1=C(N)Oc2n[nH]c(-c3cccnc3)c2C1c1cc(F)ccc1F (configuration not stated),inactive: -12.2%,
Cc1ccc2[nH]c(=O)c3cc(C(=O)N4CCN(C(=O)c5ccco5)CC4)sc3c2c1,inactive: -4.44%,
C(=N\NC1=Nc2cccc3cccc1c23)/c1ccccn1,,"inconclusive: 10 µM [inhibitor, full curve, poor fit]"
